Inconclusive results, whose numbers are uncertain, are shown with a selection of clear calls. Potencies beside an inconclusive call are fits to weak or partial responses and may not hold up. Active and inactive are the calls of the source. Calls follow the shape of the dose curve; as a rule, active = well fitted curve in the direction sought with a large enough effect; inconclusive = small, poorly fitted or top-dose-only effect, or another doubt; inactive = no such curve, though single readings can be large; an effect the other way counts as inactive or inconclusive.
Assay: qHTS to identify inhibitors of the type 1 interferon - major histocompatibility complex class I in skeletal muscle: primary screen against the NCATS Pharmaceutical Collection (AID 1347407);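 also: luminescence of HiBiT knocked into endogenous HLA-B as interferon-induced MHC class I level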; as to activity change, negative = inhibition: % is scaled to controls: 0 for no effect and ±100 for the full control effect
Conditions: human skeletal muscle cells, IFN-b-induced MHC-I HiBiT luminescence, 24 h; activity change, negative = inhibition: at 45.9 µM (top of the series) unless noted
Summary of the method: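 Cells were seeded with 4 ng/ml IFN-beta, incubated 1 h, then dosed with compounds over eight 1:5 steps up to 46 uM final. After 24 h at 37 C, HiBiT lytic reagent was added and luminescence read after 10 min lysis in the dark.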
Potency is read from the fitted curve at half-maximal effect; tags tell the direction and shape of the fitted curve.

SMILES	Potency	activity change, negative = inhibition
C#C[C@]1(O)CC[C@H]2[C@@H]3CCC4=CC(=O)CCC4=C3C=C[C@@]21CC	inconclusive: 13.3 µM [inhibitor, partial curve]	
Oc1cc(Cl)ccc1Oc1ccc(Cl)cc1Cl	inconclusive: 49.5 µM [inhibitor, partial curve, poor fit]	
Nc1ccc(N=Nc2ccccc2)cc1	inconclusive: 67.9 µM [inhibitor, single point]	
O=C1C(I)=CC(=C(c2cc(I)c(O)c(I)c2)c2ccccc2C(=O)O)C=C1I	inactive	
CC(=O)[O][Hg][c]1ccccc1	inconclusive: 29.7 µM [inhibitor, single point]	
Clc1ccc(CSC(Cn2ccnc2)c2ccc(Cl)cc2Cl)cc1 (stereo not given)	inconclusive: 33.3 µM [inhibitor, single point]	
CC(C)(C)CC(C)(C)c1ccc(O)cc1		inconclusive: -32.7% [inhibitor] [at 92.2 µM]

Assay: qHTS to identify inhibitors of the type 1 interferon - major histocompatibility complex class I in skeletal muscle: primary screen against the NCATS Mechanism Interrogation Plate v5.0 (MIPE) Libary (AID 1347411); also: nearly all actives have a fitted effect of over 65% in size;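 as to activity change, negative = inhibition: plate controls were vehicle for no effect and reference inhibitor for full effect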
Conditions: iHSKM cells + IFN-b, HiBiT-tagged MHC-I luminescence, 24 h; activity change, negative = inhibition: at 45.8 µM (top of the series)
Summary of the method: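 Immortalized human myoblasts (C25cl48) with HiBit knocked into endogenous HLA-B*08:01 were stimulated with 4 ng/ml IFN-beta and given compounds in 11-point 1:3 titration from 46 uM. After 24 h at 37 C, lytic HiBiT luminescence was read.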

SMILES	Potency	activity change, negative = inhibition
CCCCCC[C@H]1C(=O)O[C@H](C)[C@H](NC(=O)c2cccc(NC=O)c2O)C(=O)O[C@@H](C)[C@@H]1OC(=O)CC(C)C	inconclusive: 5.23 µM [inhibitor, full curve, poor fit]	
Cc1[nH]nc2ccc(-c3cncc(OC[C@@H](N)Cc4c[nH]c5ccccc45)c3)cc12	active: 2.62 µM	
Cc1c(C(=O)Nc2cccc(C(F)(F)F)c2)cc(-c2ccccc2)n1CCCN1CCOCC1	inconclusive: 33 µM [inhibitor, partial curve, poor fit]	
COC[C@@H](NC(C)=O)C(=O)NCc1ccccc1	inactive	
CCNC(=O)CC1N=C(c2ccc(Cl)cc2)c2cc(OC)ccc2-n2c(C)nnc21 (stereo not given)	inactive	
O=C(Oc1ccc([N+](=O)[O-])cc1)N1CCN(Cc2cccc(Oc3ccccc3)c2)CC1	inconclusive: 13.1 µM [inhibitor, partial curve, poor fit]	
C[C@H]1CCC/C=C/C2C[C@H](O)C[C@H]2[C@H](O)/C=C/C(=O)O1 (stereo not given in full)	active: 0.147 µM	
O=C(Nc1ccncc1)C(=O)c1cn(Cc2ccc(Cl)cc2)c2ccccc12	inconclusive: 0.829 µM [inhibitor, full curve]	
NC1=NC(=O)N2CC12 (stereo not given)		inconclusive: -33.8% [inhibitor]
CC(C)(C)c1cc(C=C(C#N)C#N)cc(Br)c1O	inconclusive: 33 µM [inhibitor, partial curve, poor fit]	
CC[C@@H](C(N)=O)N1CCCC1=O	inactive	
COc1ccc(C(=O)c2c(C)n(CCN3CCOCC3)c3cc(I)ccc23)cc1	inconclusive: 18.6 µM [inhibitor, partial curve, poor fit]	
C[C@H](Nc1ncnc2nc[nH]c12)c1nc2ccc(F)cc2c(=O)n1-c1ccccc1	inconclusive: 3.3 µM [inhibitor, full curve, poor fit]	
Cc1sc2c(c1C)C(c1ccc(Cl)cc1)=N[C@@H](CC(N)=O)c1nnc(C)n1-2	inconclusive: 1.17 µM [inhibitor, full curve, poor fit]	
COc1cc([C@@H]2c3cc4c(cc3[C@@H](O)C3COC(=O)C32)OCO4)cc(OC)c1O (stereo not given in full)	inconclusive: 0.587 µM [inhibitor, full curve]	
Cn1cc(C2=C(c3cn(C4CCN(Cc5ccccn5)CC4)c4ccccc34)C(=O)NC2=O)c2ccccc21	inactive	
COc1ccc(C(=O)N2CCCC2=O)cc1	inactive	
COc1ccc(C(=O)c2c(C)n(CCN3CCOCC3)c3ccccc23)cc1	inconclusive: 29.4 µM [inhibitor, partial curve, poor fit]	
Cc1sc2c(c1C)C(c1ccc(Cl)cc1)=N[C@@H](CC(=O)OC(C)(C)C)c1nnc(C)n1-2	inconclusive: 0.37 µM [inhibitor, full curve]	
Cc1sc2c(c1C)C(c1ccc(Cl)cc1)=NC(CC(=O)Nc1ccc(O)cc1)c1nnc(C)n1-2 (stereo not given)	inconclusive: 0.829 µM [inhibitor, full curve]	
COCC1(CO)C(=O)C2CCN1CC2 (stereo not given)	inconclusive: 29.4 µM [inhibitor, single point]	
CCOc1ccccc1-n1c(C(C)N2CCN(C(=O)COc3ccc(Cl)cc3)CC2)nc2ccccc2c1=O (stereo not given)	inactive	
CN(C)c1cc2c(cc1Sc1nc3c(N)nccc3n1CCNCC(C)(C)C)OCO2	inconclusive: 0.587 µM [inhibitor, full curve]	

— PubChem BioAssay (NCATS)
